According to paper PMC8413330:
Results are given in words; binding and its absence hold for the method and conditions named. Binding seen in cells or lysates may run through a third protein. Some binding calls cover weakened binding; strength is not graded here. For part of these data: Sequences can lack the tags named with a protein. One block for each binder: values may come before it.

Chains of the proteins cited; added tags and fusions are not shown.
UniProt P51608: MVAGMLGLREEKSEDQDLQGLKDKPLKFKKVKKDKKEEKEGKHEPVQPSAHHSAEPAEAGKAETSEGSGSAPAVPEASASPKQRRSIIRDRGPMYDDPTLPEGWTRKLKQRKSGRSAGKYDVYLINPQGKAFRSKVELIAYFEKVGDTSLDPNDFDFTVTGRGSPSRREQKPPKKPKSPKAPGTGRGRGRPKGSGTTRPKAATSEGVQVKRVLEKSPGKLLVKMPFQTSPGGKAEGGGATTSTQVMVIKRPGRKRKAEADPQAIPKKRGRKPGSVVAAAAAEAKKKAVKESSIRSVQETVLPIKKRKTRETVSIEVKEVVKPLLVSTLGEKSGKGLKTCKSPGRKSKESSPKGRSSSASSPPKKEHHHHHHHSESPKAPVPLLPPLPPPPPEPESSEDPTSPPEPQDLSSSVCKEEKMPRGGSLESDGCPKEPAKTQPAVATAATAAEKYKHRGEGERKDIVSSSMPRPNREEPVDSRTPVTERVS
UniProt Q9Y265: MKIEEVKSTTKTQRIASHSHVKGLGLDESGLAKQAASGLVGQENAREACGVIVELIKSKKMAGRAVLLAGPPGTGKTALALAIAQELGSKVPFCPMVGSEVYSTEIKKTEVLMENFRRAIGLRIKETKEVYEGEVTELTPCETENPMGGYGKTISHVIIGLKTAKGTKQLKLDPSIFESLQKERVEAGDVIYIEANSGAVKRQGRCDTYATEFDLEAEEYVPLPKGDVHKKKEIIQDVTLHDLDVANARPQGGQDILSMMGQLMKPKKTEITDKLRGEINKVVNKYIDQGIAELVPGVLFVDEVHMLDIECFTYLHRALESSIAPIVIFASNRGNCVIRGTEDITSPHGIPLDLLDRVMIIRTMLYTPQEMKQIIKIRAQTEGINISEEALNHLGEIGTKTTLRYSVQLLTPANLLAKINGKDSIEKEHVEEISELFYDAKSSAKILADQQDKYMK

Key:
HA-MeCP2 [1] = biological target: HA-MeCP2 (UniProt P51608); test: proximity ligation; Duolink In Situ Red kit on fixed, permeabilized HEK293 cells transiently co-transfected; Flag and HA antibodies; fluorescence microscopy
[2] = biological target: T1, HA-MAZ (human (cDNA library from MCF7 cells)) (UniProt P56270); test: co-IP; nuclear extracts (500 ug, NE-PER) of transiently co-transfected HEK293 cells (48 h); HA antibody or isotype-matched IgG with protein A and G magnetic beads at 4 °C; washes in 150 mM NaCl, 10 mM HEPES pH 7.5, 10 mM MgCl2, 0.5% Igepal; WB with the Flag or HA antibody
T1 sequence: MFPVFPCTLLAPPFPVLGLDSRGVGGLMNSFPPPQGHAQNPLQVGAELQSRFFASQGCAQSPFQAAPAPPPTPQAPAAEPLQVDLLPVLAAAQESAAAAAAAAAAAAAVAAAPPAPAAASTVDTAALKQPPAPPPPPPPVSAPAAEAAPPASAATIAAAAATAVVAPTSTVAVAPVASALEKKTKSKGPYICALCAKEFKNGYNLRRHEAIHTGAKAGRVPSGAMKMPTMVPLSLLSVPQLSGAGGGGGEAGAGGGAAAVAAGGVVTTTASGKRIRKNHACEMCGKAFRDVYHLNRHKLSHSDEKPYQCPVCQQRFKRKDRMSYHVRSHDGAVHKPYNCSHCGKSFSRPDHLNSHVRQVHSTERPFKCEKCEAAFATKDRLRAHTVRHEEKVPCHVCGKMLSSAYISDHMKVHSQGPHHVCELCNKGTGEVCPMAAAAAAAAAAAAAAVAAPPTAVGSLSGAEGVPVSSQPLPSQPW

HA-MAZΔN = biological target: T2, HA-MAZΔN (UniProt P56270); test: as above
T2 sequence: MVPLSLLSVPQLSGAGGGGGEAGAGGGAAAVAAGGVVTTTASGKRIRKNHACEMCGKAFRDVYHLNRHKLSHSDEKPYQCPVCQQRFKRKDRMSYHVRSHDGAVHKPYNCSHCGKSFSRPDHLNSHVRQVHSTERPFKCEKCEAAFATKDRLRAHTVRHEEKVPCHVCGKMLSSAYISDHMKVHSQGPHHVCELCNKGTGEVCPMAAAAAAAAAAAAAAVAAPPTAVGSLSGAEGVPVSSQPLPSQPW

[3] = biological target: T3, SNW1 (SNW Domain Containing 1), transfected (UniProt Q13573); test: as above
T3 sequence: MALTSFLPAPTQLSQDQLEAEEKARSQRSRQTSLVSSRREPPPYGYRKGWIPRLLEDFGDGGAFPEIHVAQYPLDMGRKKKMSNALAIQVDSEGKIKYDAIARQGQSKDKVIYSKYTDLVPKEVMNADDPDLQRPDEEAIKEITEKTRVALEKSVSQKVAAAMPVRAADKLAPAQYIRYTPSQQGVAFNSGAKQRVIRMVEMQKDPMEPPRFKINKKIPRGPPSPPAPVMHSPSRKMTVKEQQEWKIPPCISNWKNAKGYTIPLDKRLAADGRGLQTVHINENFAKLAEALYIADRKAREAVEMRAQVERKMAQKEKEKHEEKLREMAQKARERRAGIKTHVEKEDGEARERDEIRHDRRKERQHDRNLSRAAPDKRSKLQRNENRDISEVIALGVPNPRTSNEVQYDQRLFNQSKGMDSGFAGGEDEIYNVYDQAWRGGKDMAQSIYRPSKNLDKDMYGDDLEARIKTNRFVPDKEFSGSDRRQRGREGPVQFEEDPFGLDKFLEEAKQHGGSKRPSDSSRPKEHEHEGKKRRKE

HA-MeCP2 [4] = biological target: HA-MeCP2 (UniProt P51608); test: as above
HA-EMD = biological target: T4, HA-EMD (UniProt P50402); test: as above
T4 sequence: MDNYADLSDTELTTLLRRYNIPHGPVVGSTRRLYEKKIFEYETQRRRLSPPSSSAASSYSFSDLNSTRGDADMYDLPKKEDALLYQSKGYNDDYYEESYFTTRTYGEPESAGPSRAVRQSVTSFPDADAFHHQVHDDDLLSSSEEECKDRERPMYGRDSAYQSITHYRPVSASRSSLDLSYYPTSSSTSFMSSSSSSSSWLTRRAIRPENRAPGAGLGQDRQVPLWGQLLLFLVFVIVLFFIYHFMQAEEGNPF

[5] = biological target: T5, LAP2α (Thymopoietin; Lamina-Associated Polypeptide 2, Isoform alpha), transfected (UniProt P42166); test: as above
T5 sequence: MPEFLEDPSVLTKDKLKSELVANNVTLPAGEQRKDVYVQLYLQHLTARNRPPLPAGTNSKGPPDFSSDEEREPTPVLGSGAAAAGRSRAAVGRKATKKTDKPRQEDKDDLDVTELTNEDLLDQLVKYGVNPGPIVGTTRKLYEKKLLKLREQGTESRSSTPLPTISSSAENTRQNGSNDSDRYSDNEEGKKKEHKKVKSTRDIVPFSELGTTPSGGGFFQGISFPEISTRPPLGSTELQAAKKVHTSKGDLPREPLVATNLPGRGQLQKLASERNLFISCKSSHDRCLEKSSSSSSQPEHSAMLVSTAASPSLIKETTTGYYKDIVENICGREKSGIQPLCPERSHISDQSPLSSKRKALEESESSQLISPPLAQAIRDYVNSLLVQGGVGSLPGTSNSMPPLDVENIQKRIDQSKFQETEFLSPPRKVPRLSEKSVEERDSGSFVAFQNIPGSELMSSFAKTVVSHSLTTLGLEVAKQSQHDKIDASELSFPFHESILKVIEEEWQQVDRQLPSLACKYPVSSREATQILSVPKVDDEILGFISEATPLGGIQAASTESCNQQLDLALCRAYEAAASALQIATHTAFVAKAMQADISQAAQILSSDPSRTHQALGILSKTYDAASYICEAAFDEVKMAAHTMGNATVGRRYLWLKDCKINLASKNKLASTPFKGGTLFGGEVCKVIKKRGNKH

[6] = biological target: RUVBL1 (RuvB Like AAA ATPase 1), transfected (UniProt Q9Y265); test: as above

B1: 3F-CXXC5 (protein, UniProt Q7LFL8 1-322)
chain: MSSLGGGSQDAGGSSSSSTNGSGGSGSSGPKAGAADKSAVVAAAAPASVADDTPPPERRNKSGIISEPLNKSLRRSRPLSHYSSFGSSGGSGGGSMMGGESADKATAAAAAASLLANGHDLAAAMAVDKSNPTSKHKSGAVASLLSKAERATELAAEGQLTLQQFAQSTEMLKRVVQEHLPLMSEAGAGLPDMEAVAGAEALNGQSDFPYLGAFPINPGLFIMTPAGVFLAESALHMAGLAEYPMQGELASAISSGKKKRKRCGMCAPCRRRINCEQCSSCRNRKTGHQICKFRKCEELKKKPSAALEKVMLPTGAAFRWFQ
binding (HA-MeCP2 [1]): binds
binding [2]: binds
binding (HA-MAZΔN): binds
binding [3]: no binding
binding (HA-MeCP2 [4]): binds
binding (HA-EMD): binds
binding [5]: no binding
binding [6]: no binding

B3: 3F-CXXC5Δ_(150-199) (protein, UniProt Q7LFL8)
chain: MSSLGGGSQDAGGSSSSSTNGSGGSGSSGPKAGAADKSAVVAAAAPASVADDTPPPERRNKSGIISEPLNKSLRRSRPLSHYSSFGSSGGSGGGSMMGGESADKATAAAAAASLLANGHDLAAAMAVDKSNPTSKHKSGAVASLLSKAEEALNGQSDFPYLGAFPINPGLFIMTPAGVFLAESALHMAGLAEYPMQGELASAISSGKKKRKRCGMCAPCRRRINCEQCSSCRNRKTGHQICKFRKCEELKKKPSAALEKVMLPTGAAFRWFQ
binding (HA-MeCP2 [4]): binds

B5: 3F-CXXC5Δ_(1-100) (domain or fragment, UniProt Q7LFL8 101-322)
chain: SADKATAAAAAASLLANGHDLAAAMAVDKSNPTSKHKSGAVASLLSKAERATELAAEGQLTLQQFAQSTEMLKRVVQEHLPLMSEAGAGLPDMEAVAGAEALNGQSDFPYLGAFPINPGLFIMTPAGVFLAESALHMAGLAEYPMQGELASAISSGKKKRKRCGMCAPCRRRINCEQCSSCRNRKTGHQICKFRKCEELKKKPSAALEKVMLPTGAAFRWFQ
binding (HA-MeCP2 [4]): binds

Second part, the binder after the results:

binding (HA-MeCP2 [4]): binds
B2: 3F-CXXC5Δ_(100-149) (protein, UniProt Q7LFL8)
chain: MSSLGGGSQDAGGSSSSSTNGSGGSGSSGPKAGAADKSAVVAAAAPASVADDTPPPERRNKSGIISEPLNKSLRRSRPLSHYSSFGSSGGSGGGSMMGGRATELAAEGQLTLQQFAQSTEMLKRVVQEHLPLMSEAGAGLPDMEAVAGAEALNGQSDFPYLGAFPINPGLFIMTPAGVFLAESALHMAGLAEYPMQGELASAISSGKKKRKRCGMCAPCRRRINCEQCSSCRNRKTGHQICKFRKCEELKKKPSAALEKVMLPTGAAFRWFQ

binding (HA-MeCP2 [4]): binds
B4: 3F-CXXC5Δ_(200-249) (protein, UniProt Q7LFL8)
chain: MSSLGGGSQDAGGSSSSSTNGSGGSGSSGPKAGAADKSAVVAAAAPASVADDTPPPERRNKSGIISEPLNKSLRRSRPLSHYSSFGSSGGSGGGSMMGGESADKATAAAAAASLLANGHDLAAAMAVDKSNPTSKHKSGAVASLLSKAERATELAAEGQLTLQQFAQSTEMLKRVVQEHLPLMSEAGAGLPDMEAVAGAASAISSGKKKRKRCGMCAPCRRRINCEQCSSCRNRKTGHQICKFRKCEELKKKPSAALEKVMLPTGAAFRWFQ
